According to the supplement of paper PMC12067093, “Discovery and optimisation of a covalent ligand for TRIM25 and its application to targeted protein ubiquitination” (Chemical Science, 2025):
The full data set covers some 21,000 targets. This sample favours those with the largest changes.

compound: CC1Cc2ccccc2N1C(=O)C1CCCN(C1)C(=O)CCl (mixture of isomers) [TRIM25 ligand 11 (diastereomer mixture)]; test: probe-labelled cysteine peptide fold change vs DMSO (competition) (log2 fold change); higher = less target engagement (more negative = stronger competition); conditions: 10 µM; THP-1; incubation time: 4 h
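Note: competitive chemoproteomic profiling in live THP-1 cells with an iodoacetamide desthiobiotin (IA-DTB) probe, comparing probe-labelled peptide intensities in compound-treated cells against DMSO-treated controls.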

Sequence of UniProt P62633 (P62633 whole entry, looked up): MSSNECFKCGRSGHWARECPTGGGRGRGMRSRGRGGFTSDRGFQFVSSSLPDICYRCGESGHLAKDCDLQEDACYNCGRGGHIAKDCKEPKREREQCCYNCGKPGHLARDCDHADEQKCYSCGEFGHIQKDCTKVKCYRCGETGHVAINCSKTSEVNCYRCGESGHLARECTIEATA
Sequence of UniProt P48643 (P48643 whole entry, looked up): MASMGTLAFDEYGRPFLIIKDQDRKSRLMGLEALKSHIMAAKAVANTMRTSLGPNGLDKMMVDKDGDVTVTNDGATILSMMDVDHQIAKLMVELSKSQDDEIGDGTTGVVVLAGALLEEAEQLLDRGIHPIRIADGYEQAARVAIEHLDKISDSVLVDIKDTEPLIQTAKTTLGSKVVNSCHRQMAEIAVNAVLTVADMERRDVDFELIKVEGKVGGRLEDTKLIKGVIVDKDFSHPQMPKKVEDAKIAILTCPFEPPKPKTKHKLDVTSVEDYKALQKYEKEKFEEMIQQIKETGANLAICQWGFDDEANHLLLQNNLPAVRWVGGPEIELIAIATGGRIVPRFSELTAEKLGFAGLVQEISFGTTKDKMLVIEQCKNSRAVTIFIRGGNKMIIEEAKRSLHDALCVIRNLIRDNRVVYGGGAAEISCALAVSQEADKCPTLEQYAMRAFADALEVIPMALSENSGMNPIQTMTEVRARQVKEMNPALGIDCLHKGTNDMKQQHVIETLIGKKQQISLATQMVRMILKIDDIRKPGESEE
Sequence of UniProt P25942 (P25942 whole entry, looked up): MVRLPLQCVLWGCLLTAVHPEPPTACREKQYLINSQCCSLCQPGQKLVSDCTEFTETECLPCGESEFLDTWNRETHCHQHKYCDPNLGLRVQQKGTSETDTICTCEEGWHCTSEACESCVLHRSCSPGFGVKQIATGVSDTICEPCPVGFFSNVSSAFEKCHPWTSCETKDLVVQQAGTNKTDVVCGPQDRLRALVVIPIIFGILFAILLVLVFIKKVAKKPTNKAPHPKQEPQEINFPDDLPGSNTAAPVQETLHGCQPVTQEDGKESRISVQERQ
Sequence of UniProt P50990 (P50990 whole entry, looked up): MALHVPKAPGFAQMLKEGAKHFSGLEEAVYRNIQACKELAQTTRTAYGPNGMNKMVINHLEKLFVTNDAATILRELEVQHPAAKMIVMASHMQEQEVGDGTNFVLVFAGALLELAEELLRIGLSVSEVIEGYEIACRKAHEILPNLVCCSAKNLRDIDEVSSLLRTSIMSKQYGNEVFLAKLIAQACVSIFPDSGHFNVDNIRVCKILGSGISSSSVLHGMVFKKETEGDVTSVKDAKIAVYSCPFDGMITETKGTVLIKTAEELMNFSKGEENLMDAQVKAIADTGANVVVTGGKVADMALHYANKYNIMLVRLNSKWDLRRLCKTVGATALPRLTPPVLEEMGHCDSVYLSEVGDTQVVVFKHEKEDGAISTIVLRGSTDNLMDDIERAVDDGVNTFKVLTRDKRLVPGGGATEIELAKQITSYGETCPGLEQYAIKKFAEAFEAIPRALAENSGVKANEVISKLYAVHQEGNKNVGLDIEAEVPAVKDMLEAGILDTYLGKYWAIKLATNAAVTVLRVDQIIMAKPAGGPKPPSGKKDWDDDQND
Sequence of UniProt Q9BX69 (Q9BX69 whole entry, looked up): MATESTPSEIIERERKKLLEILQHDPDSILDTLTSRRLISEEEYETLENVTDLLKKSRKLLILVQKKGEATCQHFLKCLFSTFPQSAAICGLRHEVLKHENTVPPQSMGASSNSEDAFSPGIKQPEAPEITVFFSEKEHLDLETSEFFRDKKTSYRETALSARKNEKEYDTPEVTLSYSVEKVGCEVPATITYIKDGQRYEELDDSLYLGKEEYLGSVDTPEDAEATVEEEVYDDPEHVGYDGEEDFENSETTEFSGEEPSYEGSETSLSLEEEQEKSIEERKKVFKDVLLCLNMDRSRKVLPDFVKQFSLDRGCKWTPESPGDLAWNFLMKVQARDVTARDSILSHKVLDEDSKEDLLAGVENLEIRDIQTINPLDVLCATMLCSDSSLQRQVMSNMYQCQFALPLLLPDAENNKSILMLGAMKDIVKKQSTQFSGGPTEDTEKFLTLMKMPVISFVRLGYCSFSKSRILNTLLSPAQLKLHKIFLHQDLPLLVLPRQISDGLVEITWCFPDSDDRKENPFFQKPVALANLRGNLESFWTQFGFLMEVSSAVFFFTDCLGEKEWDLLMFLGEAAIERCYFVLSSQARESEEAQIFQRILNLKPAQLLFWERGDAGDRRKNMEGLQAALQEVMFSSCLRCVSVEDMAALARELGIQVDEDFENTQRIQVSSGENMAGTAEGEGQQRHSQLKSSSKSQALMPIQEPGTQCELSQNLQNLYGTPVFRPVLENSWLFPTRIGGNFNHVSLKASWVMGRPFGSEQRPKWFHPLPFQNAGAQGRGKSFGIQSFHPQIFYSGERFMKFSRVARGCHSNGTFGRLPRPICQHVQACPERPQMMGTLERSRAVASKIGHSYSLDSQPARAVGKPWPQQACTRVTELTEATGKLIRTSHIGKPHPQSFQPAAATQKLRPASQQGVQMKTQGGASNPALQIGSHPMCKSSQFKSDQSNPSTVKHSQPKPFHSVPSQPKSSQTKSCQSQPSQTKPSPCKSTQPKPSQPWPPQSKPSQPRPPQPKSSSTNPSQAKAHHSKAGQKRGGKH
Sequence of UniProt Q01518 (Q01518 whole entry, looked up): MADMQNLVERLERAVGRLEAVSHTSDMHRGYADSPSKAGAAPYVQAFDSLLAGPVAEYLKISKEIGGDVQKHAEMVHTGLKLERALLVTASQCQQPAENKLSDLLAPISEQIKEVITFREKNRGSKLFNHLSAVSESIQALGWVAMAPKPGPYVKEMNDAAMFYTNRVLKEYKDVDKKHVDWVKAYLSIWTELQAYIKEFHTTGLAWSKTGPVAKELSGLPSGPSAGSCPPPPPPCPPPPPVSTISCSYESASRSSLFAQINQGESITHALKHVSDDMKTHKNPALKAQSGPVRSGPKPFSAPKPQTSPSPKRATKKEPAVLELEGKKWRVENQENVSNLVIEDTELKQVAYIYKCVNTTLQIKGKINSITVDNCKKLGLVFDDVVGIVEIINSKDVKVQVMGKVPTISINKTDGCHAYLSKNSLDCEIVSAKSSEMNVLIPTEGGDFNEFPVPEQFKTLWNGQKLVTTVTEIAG
Sequence of UniProt P27824 (P27824 whole entry, looked up): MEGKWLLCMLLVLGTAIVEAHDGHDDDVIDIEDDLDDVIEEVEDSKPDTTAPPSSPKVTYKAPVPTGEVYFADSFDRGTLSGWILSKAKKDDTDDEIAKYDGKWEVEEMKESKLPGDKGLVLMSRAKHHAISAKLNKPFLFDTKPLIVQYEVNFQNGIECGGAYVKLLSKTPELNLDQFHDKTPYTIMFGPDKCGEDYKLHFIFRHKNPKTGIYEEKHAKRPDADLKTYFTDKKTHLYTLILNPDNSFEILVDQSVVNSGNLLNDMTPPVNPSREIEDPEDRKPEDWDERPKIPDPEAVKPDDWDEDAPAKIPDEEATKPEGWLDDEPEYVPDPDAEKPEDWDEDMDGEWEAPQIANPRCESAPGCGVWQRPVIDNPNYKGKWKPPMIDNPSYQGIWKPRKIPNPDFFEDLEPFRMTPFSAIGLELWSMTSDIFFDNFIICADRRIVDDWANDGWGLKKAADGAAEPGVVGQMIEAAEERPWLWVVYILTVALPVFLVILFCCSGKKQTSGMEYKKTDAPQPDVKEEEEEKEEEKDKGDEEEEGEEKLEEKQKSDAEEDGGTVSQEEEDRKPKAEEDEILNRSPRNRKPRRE
Sequence of UniProt Q567U6 (Q567U6 whole entry): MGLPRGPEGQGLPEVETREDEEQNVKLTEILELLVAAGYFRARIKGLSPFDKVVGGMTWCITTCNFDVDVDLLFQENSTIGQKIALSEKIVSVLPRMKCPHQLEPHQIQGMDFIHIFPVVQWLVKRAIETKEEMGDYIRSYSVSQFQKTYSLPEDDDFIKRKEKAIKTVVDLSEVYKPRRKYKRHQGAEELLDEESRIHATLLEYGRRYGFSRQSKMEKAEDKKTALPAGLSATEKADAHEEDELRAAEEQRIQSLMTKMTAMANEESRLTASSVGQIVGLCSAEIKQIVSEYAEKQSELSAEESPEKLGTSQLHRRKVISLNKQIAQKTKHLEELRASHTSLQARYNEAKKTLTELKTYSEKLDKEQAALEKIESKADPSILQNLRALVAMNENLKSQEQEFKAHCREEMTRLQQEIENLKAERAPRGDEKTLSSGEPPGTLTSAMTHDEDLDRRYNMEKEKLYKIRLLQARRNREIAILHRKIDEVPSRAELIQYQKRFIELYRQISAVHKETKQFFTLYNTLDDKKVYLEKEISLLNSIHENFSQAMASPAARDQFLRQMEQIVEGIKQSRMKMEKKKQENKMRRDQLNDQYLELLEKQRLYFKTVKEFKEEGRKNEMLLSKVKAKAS
Sequence of UniProt Q13557 (Q13557 whole entry, looked up): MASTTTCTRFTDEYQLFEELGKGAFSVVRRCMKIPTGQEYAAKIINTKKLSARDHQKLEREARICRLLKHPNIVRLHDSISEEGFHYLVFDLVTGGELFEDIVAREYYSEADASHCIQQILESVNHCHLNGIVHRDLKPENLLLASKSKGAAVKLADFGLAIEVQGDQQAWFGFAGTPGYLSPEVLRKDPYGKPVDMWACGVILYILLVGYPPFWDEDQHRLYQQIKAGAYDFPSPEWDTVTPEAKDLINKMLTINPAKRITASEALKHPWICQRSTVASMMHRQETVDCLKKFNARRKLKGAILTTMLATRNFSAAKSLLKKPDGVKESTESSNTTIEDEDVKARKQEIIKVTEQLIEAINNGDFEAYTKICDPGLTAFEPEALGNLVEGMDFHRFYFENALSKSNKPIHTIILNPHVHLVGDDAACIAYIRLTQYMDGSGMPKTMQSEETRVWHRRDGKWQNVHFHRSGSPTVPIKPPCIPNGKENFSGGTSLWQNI

Question: With “CAMK2D_Q13557_7_ASTTTCTR (UniProt Q13557)” as the target, how does the “probe-labelled cysteine peptide fold change” value read?
Answer: 0.604

Question: Which “probe-labelled cysteine peptide fold change” value does the source give for “CCDC93_Q567U6_99_CPHQLEPHQIQGMDFIHIFPVVQWLVK (UniProt Q567U6)” here?
Answer: 0.00408

Question: “BRAP_Q7Z569_221_AQADADSFYMTCNGR (UniProt Q7Z569)” was tested. Which “probe-labelled cysteine peptide fold change” value did it give?
Answer: 0.184

Question: Which “probe-labelled cysteine peptide fold change” value does the source give for “CCDC186_Q7Z3E2_80_IEAQENYIPDHGGGEDSCAK (UniProt Q7Z3E2)” here?
Answer: 0.0236

Question: Which “probe-labelled cysteine peptide fold change” value does the source give for “BTF3_P20290_22_GGCPGGEATLSQPPPR (UniProt P20290)” here?
Answer: -0.0722

Question: How did the “probe-labelled cysteine peptide fold change” value turn out when “BPTF_Q12830_940_AVQMCSKPR (UniProt Q12830)” was run?
Answer: -0.232

Question: “CARD6_Q9BX69_872_AVGKPWPQQACTR (UniProt Q9BX69)” was tested. Which “probe-labelled cysteine peptide fold change” value did it give?
Answer: -0.0903

Question: “BPNT1_O95861_249_WDTCAPEVILHAVGGK (UniProt O95861)” was tested. Which “probe-labelled cysteine peptide fold change” value did it give?
Answer: 0.0346

Question: Which “probe-labelled cysteine peptide fold change” value does the source give for “CAP1_Q01518_93_LERALLVTASQCQQPAENK (UniProt Q01518)” here?
Answer: 0.167

Question: For “CCT8_P50990_148_AHEILPNLVCCSAK (UniProt P50990)”, which “probe-labelled cysteine peptide fold change” value is on record?
Answer: 0.0907

Question: “CD40_P25942_119_GTSETDTICTCEEGWHCTSEACESCVLHR (UniProt P25942)” was tested. Which “probe-labelled cysteine peptide fold change” value did it give?
Answer: 0.209

Question: How did the “probe-labelled cysteine peptide fold change” value turn out when “CHD9_Q3L8U1_1375_FCEEDIDQILLR (UniProt Q3L8U1)” was run?
Answer: 0.364

Question: With “CANX_P27824_194_TPYTIMFGPDKCGEDYK (UniProt P27824)” as the target, how does the “probe-labelled cysteine peptide fold change” value read?
Answer: -0.644

Question: With “CCT5_P48643_302_ETGANLAICQWGFDDEANHLLLQNNLPAVR (UniProt P48643)” as the target, how does the “probe-labelled cysteine peptide fold change” value read?
Answer: 0.148

Question: For “CNBP_P62633_158_TSEVNCYR (UniProt P62633)”, which “probe-labelled cysteine peptide fold change” value is on record?
Answer: -0.0696

Question: For “CAST_P20810-2_228_YRELLAKPIGPDDAIDALSSDFTCGSPTAAGK (UniProt P20810)”, which “probe-labelled cysteine peptide fold change” value is on record?
Answer: -0.236
